{"source": "PubChem BioAssay AID624296", "about": "(National Center for Advancing Translational Sciences (NCATS), 2012)", "note": "Out of some 350,000 compounds screened, about 9,900 (2.8%) were called active. Inconclusive means that the source gave no clear call. Such entries were picked first, then a sample of the others. The call rests on the fitted dose curve; in most records, active means well fitted activation curve with a large enough effect; inconclusive means small, poorly fitted or top-dose-only effect; inactive means no such curve, though single readings can be large or run the other way. No potency is given beside an inconclusive call; the fits are too rough. Potency means the concentration at half of the fitted maximal effect; tags describe the fitted curve by direction and shape.", "data": [{"assay": "A quantitative high throughput screen for small molecules that induce DNA re-replication in MCF 10a normal breast cells; further: nearly all actives have a fitted effect of over 50% in size; on activity, positive = re-replication: % of control where 0% means no effect.", "settings": "MCF 10A DNA re-replication, Hoechst nuclear intensity, 48 h; activity, positive = re-replication: at 46.1 µM (top of the series)", "values": [{"molecule": "NC(=O)C1CCN(C(=O)c2cccc(S(=O)(=O)N3CCc4ccccc4C3)c2)CC1", "activity, positive = re-replication": "inactive: -16.9%"}, {"molecule": "O=C(NC(Cc1c[nH]c2ccccc12)C(=O)O)/C(=C/c1ccc2c(c1)OCO2)NC(=O)c1ccccc1", "note": "(stereo not given)", "activity, positive = re-replication": "inactive: -16.2%"}, {"molecule": "O=C(CN(C(=O)c1csnn1)c1cccc(C(F)(F)F)c1)NCCc1ccccc1", "Potency": "inconclusive [activator, single point]"}, {"molecule": "CCOc1ccccc1-c1nc(-c2ccc(NC(=O)c3ccc(Br)o3)cc2)no1", "Potency": "inconclusive [activator, single point]"}, {"molecule": "Cc1nnc(NC(=O)CCC(=O)N2CCC(C)CC2)s1", "Potency": "inconclusive [activator, partial curve, poor fit]"}, {"molecule": "COc1ccc(C(C[N+](=O)[O-])c2c(C)cc3ccccn23)c(OC)c1", "note": "(stereo not given)", "Potency": "inconclusive [activator, single point]"}, {"molecule": "COc1ccccc1CN1C[C@@H]2C[C@@H](c3[nH]c4c(C)cccc4c3C)N3CCC[C@@]23C1=O", "Potency": "inconclusive [activator, full curve, poor fit]"}, {"molecule": "CN(C)CCCN(C(=O)c1ccc(S(=O)(=O)N(C)C2CCCCC2)cc1)c1nc2ccc(Br)cc2s1", "Potency": "inconclusive [activator, single point]"}, {"molecule": "COC(=O)c1ccc(NC(=O)Nc2cccc(F)c2)cc1", "Potency": "inconclusive [activator, single point]"}, {"molecule": "O=c1[nH]c(CN2CCN(S(=O)(=O)c3ccc4c(c3)OCCO4)CC2)nc2sc3c(c12)CCCC3", "Potency": "inconclusive [activator, partial curve, poor fit]"}, {"molecule": "COc1cccc(CNc2ncnc3cc(OC)c(OC)cc23)c1", "Potency": "inconclusive [activator, partial curve, poor fit]"}, {"molecule": "COc1ccc(C(=O)COc2nc(C)cc(C)c2C#N)cc1", "activity, positive = re-replication": "inactive: 20.1%"}, {"molecule": "C=CCNC(=O)/C(=C\\c1ccc2c(c1)OCO2)NC(=O)c1ccc(Br)cc1", "activity, positive = re-replication": "inactive: -4.67%"}, {"molecule": "COc1ccc(/C=C/C(=O)NCCc2nc3ccccc3[nH]2)cc1", "Potency": "inconclusive [activator, single point]"}, {"molecule": "Nc1ccc(-c2nc3c(Cl)cc(N)cc3[nH]2)cc1", "Potency": "inconclusive [activator, single point]"}, {"molecule": "CC(=O)c1sc(Nc2cccc3ccccc23)nc1C", "Potency": "inconclusive [activator, partial curve, poor fit]"}, {"molecule": "O=C(NCc1ccco1)C1CC(c2ccc(Cl)c(Cl)c2)=NO1", "note": "(stereo not given)", "Potency": "inconclusive [activator, single point]"}, {"molecule": "CCN(CC(=O)NCc1ccc(F)cc1)Cc1cc(=O)n2ccsc2n1", "Potency": "inconclusive [activator, partial curve, poor fit]"}, {"molecule": "CCOC(=O)c1c(CN2CCN(c3ccccc3)CC2)oc2cc(Br)c(O)cc12", "Potency": "inconclusive [activator, single point]"}, {"molecule": "COCCN=c1scc(-c2cc(OC)c(OC)c(OC)c2)n1/N=C/c1c(C)[nH]c2ccccc12", "Potency": "inconclusive [activator, partial curve, poor fit]"}, {"molecule": "O=C(CSc1nc2ccc(Cl)cc2[nH]1)Nc1ccc2[nH]c(=O)[nH]c2c1", "activity, positive = re-replication": "inactive: 5.72%"}, {"molecule": "CCCSc1nc(-c2ccccc2)cc(C(F)(F)F)c1C#N", "Potency": "inconclusive [activator, single point]"}, {"molecule": "O=c1oc2ccccc2c(O)c1C=NCc1ccccn1", "Potency": "inconclusive [activator, partial curve, poor fit]"}, {"molecule": "Cc1cc(C)c(C(=O)/C=C/c2cccc3ccccc23)c(=O)[nH]1", "Potency": "active: 16.4 µM"}, {"molecule": "CC(C)CCNC(=O)c1onc(CSc2ccncc2)c1C(=O)NCCC(C)C", "Potency": "inconclusive [activator, full curve, poor fit]"}, {"molecule": "CCOC(=O)c1c(NC(=O)CSc2nc3ccccc3c(=O)n2-c2ccc(F)cc2)sc(C(C)=O)c1C", "Potency": "inconclusive [activator, partial curve, poor fit]"}, {"molecule": "COc1ccccc1CNC(=O)c1cc2ccccc2oc1=O", "activity, positive = re-replication": "inactive: -12.9%"}, {"molecule": "COc1ccc(C(=O)Nc2ccnn2C2CCN(C(=O)c3cnsn3)CC2)cc1", "activity, positive = re-replication": "inactive: -1.62%"}, {"molecule": "COc1cccc(OC)c1C1=CC(=O)C[C@H](c2ccc3c(c2)OCO3)C1", "Potency": "inconclusive [activator, partial curve, poor fit]"}, {"molecule": "CCOc1ccccc1NC(=O)C(Sc1ccccc1)c1ccccc1", "note": "(stereo not given)", "Potency": "inconclusive [activator, partial curve]"}, {"molecule": "C=CCc1cccc2cc(C(=O)Nc3ccc(S(=O)(=O)Nc4nnc(CC)s4)cc3)c(=O)oc12", "Potency": "inconclusive [activator, single point]"}, {"molecule": "COc1ccc(C)cc1Nc1cc(C)nc2nc(C)nn12", "activity, positive = re-replication": "inactive: 23.5%"}, {"molecule": "COc1ccc2cc(CN(C(=O)Nc3ccccc3OC)C3CCCC3)c(=O)[nH]c2c1", "Potency": "inconclusive [activator, single point]"}, {"molecule": "O=C(Nc1ccc(N2CCN(C(=O)c3ccccc3F)CC2)cc1)c1cncc(Br)c1", "Potency": "inconclusive [activator, single point]"}, {"molecule": "Cc1cc(C(=O)C(C)OC(=O)c2ccc(NC(=O)CC#N)cc2)c(C)n1-c1ccccc1", "note": "(stereo not given)", "Potency": "inconclusive [activator, partial curve]"}, {"molecule": "CC(=O)c1cccc(NS(=O)(=O)N2CCOCC2)c1", "activity, positive = re-replication": "inactive: 0.0558%"}, {"molecule": "Cc1ccc(C(C(=O)NC2CCCC2)N(C(=O)Cc2cccs2)c2ccc(C)c(C)c2)o1", "note": "(stereo not given)", "activity, positive = re-replication": "inactive: 0.551%"}, {"molecule": "CC(OC(=O)[C@@H](NC(=O)OCc1ccccc1)C(C)C)C(=O)Nc1ccc(N2CCOCC2)cc1", "note": "(stereo not given in full)", "activity, positive = re-replication": "inactive: -6.71%"}, {"molecule": "COC(=O)C1=C(C)N=C2SC(C#N)=C(N)N2C1c1ccc(OC)cc1", "note": "(stereo not given)", "activity, positive = re-replication": "inactive: -3.3%"}, {"molecule": "COC(=O)Cc1c(C)c2ccc(O)c(CNCc3ccc(OC)c(OC)c3)c2oc1=O", "Potency": "inconclusive [activator, single point]"}, {"molecule": "Brc1cc(Cc2nnc(-c3ccccc3)o2)c(Br)s1", "Potency": "inconclusive [activator, single point]"}, {"molecule": "Cc1c(C(=O)Nc2nc3ccccc3[nH]2)oc2ccccc12", "Potency": "inconclusive [activator, single point]"}, {"molecule": "COC(=O)c1ccc(CSc2nnc(-c3c[nH]c4ccccc34)n2-c2ccccc2)cc1", "Potency": "inconclusive [activator, partial curve, poor fit]"}, {"molecule": "COc1ccc(-c2nc(CN3CCCCC3c3nccn3C)c(C)o2)c(C)c1C", "note": "(stereo not given)", "activity, positive = re-replication": "inactive: 8.92%"}, {"molecule": "CCOC(=O)C(Oc1ccc(=O)n(-c2ccccc2)n1)C(C)=O", "note": "(stereo not given)", "Potency": "inconclusive [activator, full curve, poor fit]"}, {"molecule": "CCOc1ccc2nc(N3CCCC(C(=O)N4CCN(CC)CC4)C3)sc2c1", "note": "(stereo not given)", "activity, positive = re-replication": "inactive: 0.763%"}, {"molecule": "O=C(Nc1ccc(F)cc1)c1ccc(S(=O)(=O)N2CCOCC2)o1", "activity, positive = re-replication": "inactive: -6.15%"}, {"molecule": "COCCCNC(=O)C[C@H]1C[C@H](C(=O)N(C(C)C)C(C)C)[C@@]2(C)c3[nH]c4cc(CCC(=O)N(C)C)ccc4c3CCN2C1=O", "Potency": "inconclusive [activator, single point]"}, {"molecule": "CCOc1ccc(NCc2nnc(SCC(=O)Nc3nc(-c4ccccc4)cs3)n2-c2ccccc2)cc1", "Potency": "inconclusive [activator, single point]"}, {"molecule": "CCCCn1c(N)c(N(CC(C)C)C(=O)CCC2CCCCC2)c(=O)[nH]c1=O", "activity, positive = re-replication": "inactive: 0.911%"}, {"molecule": "O=C(Nn1cnnc1)C1Cc2ccccc2CN1S(=O)(=O)c1ccc(F)cc1", "note": "(stereo not given)", "Potency": "inconclusive [activator, single point]"}, {"molecule": "O=C(Nc1cccc2ccccc12)c1ccc([N+](=O)[O-])s1", "Potency": "inconclusive [activator, single point]"}, {"molecule": "Cc1ccc(-c2noc(CN(C(=O)CCCCCN3C(=O)c4ccccc4C3=O)C(C)C)n2)cc1", "activity, positive = re-replication": "inactive: -2.69%"}, {"molecule": "COc1ccc(NC(=S)NC(C)C(c2ccccc2)N2CCOCC2)cc1", "note": "(stereo not given)", "activity, positive = re-replication": "inactive: 8.24%"}, {"molecule": "COc1ccccc1S(=O)(=O)Cc1ccc(C(=O)N2CCN(c3ccccc3)CC2)o1", "activity, positive = re-replication": "inactive: 10.6%"}, {"molecule": "O=C(N/N=C/c1ccccc1Cl)c1ccncc1", "Potency": "inconclusive [activator, partial curve, poor fit]"}, {"molecule": "COc1cc(/C=N/NC(=O)c2[nH]nc3c2CCc2ccccc2-3)ccc1O", "Potency": "inconclusive [activator, partial curve]"}, {"molecule": "O=C(Nc1ccc(F)cc1)c1ccc2c(=O)n(CC3CCCO3)c(=S)[nH]c2c1", "note": "(stereo not given)", "Potency": "inconclusive [activator, full curve, poor fit]"}, {"molecule": "CCN(C(=S)Nc1cc(S(=O)(=O)N2CCOCC2)ccc1Cl)c1cccc2ccccc12", "Potency": "inconclusive [activator, partial curve, poor fit]"}, {"molecule": "COc1cc(S(=O)(=O)Nc2cccc3cn[nH]c23)c(OC)cc1Cl", "activity, positive = re-replication": "inactive: 0.285%"}, {"molecule": "Cc1cccc(C(=O)Nc2ccc(S(=O)(=O)Nc3nc(C)cc(C)n3)cc2)c1", "Potency": "inconclusive [activator, partial curve, poor fit]"}, {"molecule": "CN(CC#CC1(O)c2ccccc2-c2ccccc21)Cc1ccccc1", "activity, positive = re-replication": "inactive: -2.83%"}, {"molecule": "C=CCc1ccc(OCCOCCOc2cccc3cccnc23)c(OC)c1", "Potency": "inconclusive [activator, single point]"}, {"molecule": "CCc1ccc(NC(=O)Cn2nc(C(=O)O)c3ccccc3c2=O)cc1", "Potency": "inconclusive [activator, partial curve, poor fit]"}, {"molecule": "CCCCCC(O)(c1ccc(OCC)cc1)C(CN1CCOCC1)c1ccccc1", "note": "(stereo not given)", "Potency": "inconclusive [activator, single point]"}]}]}
